Assay results taken from EP4480493A1, “A RECOMBINANT HUMAN ALPHA-1 ANTITRYPSIN GLYCOPROTEIN FOR TREATING NON-VIRAL INFLAMMATORY DISEASES OF THE LUNG” (AATEC Medical GmbH, priority 2023, dated 2024).

Biological target: recombinant human TMPRSS2 enzyme (CusaBio #YP023924HU) (human) (UniProt O15393)
Assay: cell-based or functional assay

**Q.** Which TMPRSS2 IC50 (TMPRSS2 activity assay, fluorogenic BOC-Gln-Ala-Arg-AMC substrate) does the source give for “NIBSC Standard Alpha-1-Antitrypsin, plasma derived (1st International standard) (#05/162 NIBSC) (from UniProt P01009 25-418)” here?
**A.** Its TMPRSS2 IC50 (TMPRSS2 activity assay, fluorogenic BOC-Gln-Ala-Arg-AMC substrate) is 51.8 nM.
